Hit rate of the full screen: of about 220,000 compounds, about 16,000 (7.3%) were called active. The inconclusive results got no clear call from the source; some entries with a clear call stand among them for comparison. Calls follow the shape of the dose curve; as a rule, active = well fitted inhibition curve with a large enough effect (not every such curve was filed as active); inconclusive = small, poorly fitted or top-dose-only effect, or another doubt; inactive = no such curve, though single readings can be large or run the other way. No potency is given beside an inconclusive call; the fits are too rough.
Biological target: Aldehyde dehydrogenase 1A1 (Homo sapiens) (UniProt P00352)
Sequence of UniProt P00352 (P00352 whole entry, looked up): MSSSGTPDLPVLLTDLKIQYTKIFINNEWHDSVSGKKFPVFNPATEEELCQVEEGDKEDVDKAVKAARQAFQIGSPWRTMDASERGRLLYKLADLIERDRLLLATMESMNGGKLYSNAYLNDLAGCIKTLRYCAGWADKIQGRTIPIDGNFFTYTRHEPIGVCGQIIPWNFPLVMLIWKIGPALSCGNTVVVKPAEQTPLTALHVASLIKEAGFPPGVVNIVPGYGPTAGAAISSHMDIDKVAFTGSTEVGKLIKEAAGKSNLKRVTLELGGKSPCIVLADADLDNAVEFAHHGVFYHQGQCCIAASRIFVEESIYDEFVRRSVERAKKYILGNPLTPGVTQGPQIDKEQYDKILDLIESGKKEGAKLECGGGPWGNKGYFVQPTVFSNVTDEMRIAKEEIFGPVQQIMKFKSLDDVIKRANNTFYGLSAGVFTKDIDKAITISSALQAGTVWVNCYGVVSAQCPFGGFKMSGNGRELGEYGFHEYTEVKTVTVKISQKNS
Experiment: qHTS Assay for Inhibitors of Aldehyde Dehydrogenase 1 (ALDH1A1);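 as to activity, negative = inhibition: plate controls were no enzyme wells and a reference inhibitor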
Conditions: Purified ALDH1A1, NADH fluorescence, propionaldehyde substrate; series mostly up to 75.3 µM
Potency is read from the fitted curve at half-maximal effect; tags tell the direction and shape of the fitted curve.

Row | SMILES | Potency | activity, negative = inhibition
1 | C1=C(CCNc2nnnn2-c2ccccc2)CCCC1 | inconclusive [inhibitor, partial curve] | 
2 | CCC(C)C(=O)Nc1nc(C)c(-c2csc(Nc3ccccc3OC)n2)s1 (stereo not given) | inconclusive [inhibitor, single point] | 
3 | CCOc1ccc(OCC)c(NS(=O)(=O)c2cccc3nsnc23)c1 | inconclusive [inhibitor, single point] | 
4 | Cc1cc(/C=C(\C#N)C(=O)NCc2cccs2)c(C)n1-c1ccccc1F | inconclusive [inhibitor, partial curve] | 
5 | COc1cc(/C=C/C(=O)O)cc(OC)c1OC | inconclusive [inhibitor, single point] | 
6 | CC(=O)Nc1cccc(Oc2cc(C#N)c(C#N)cc2N2CCCCCC2)c1 | inconclusive [inhibitor, single point] | 
7 | S=c1[nH]nc(COc2ccc(Cl)cc2)n1Cc1ccccc1 | inactive | 
8 | COc1ccc2c(c1)Cc1sc(NC(=O)c3ccccc3)nc1-2 | inconclusive [inhibitor, partial curve] | 
9 | COc1ccc(CNC(=O)C2C3C=CC4(CN(Cc5cccnc5)C(=O)C24)O3)cc1 (stereo not given) | inconclusive [inhibitor, single point] | 
10 | CNc1nc(N)c(C(=O)C23CC4CC(CC(C4)C2)C3)s1 | inconclusive [inhibitor, single point] | 
11 | Cn1ncc([N+](=O)[O-])c1C(=O)Nc1ccn(Cc2ccccc2F)n1 | inactive | 
12 | NC(=S)N/N=C1/CCSc2ccc3ccccc3c21 | inconclusive [inhibitor, full curve] | 
13 | O=C(CNC(=O)c1cccc(F)c1)OCC(=O)N1CCCCC1 | inconclusive [inhibitor, single point] | 
14 | COc1ccc(-c2c(C)nn3c(N4CCN(Cc5ccccc5)CC4)cc(C)nc23)cc1OC | inconclusive [inhibitor, partial curve] | 
15 | Cc1csc(NC(=O)c2nc(-c3ccccc3)n(-c3ccccc3)n2)n1 | active: 14.1 µM | 
16 | COC(=O)[C@@]1(Cc2ccccc2)[C@H]2c3cc(C(=O)N4CCCC4)[nH]c3C[C@H]2CN1C(=O)c1ccccc1 | inactive | 
17 | O=S(=O)(Nc1ccc(Cl)cn1)c1cccc(S(=O)(=O)c2ccccc2)c1 | active: 20 µM | 
18 | CCN(CC)c1ccc(NC(=O)CCS(=O)(=O)c2cccc3nsnc23)c(C)c1 | active: 28.2 µM | 
19 | COc1cccc(COC(=O)c2nn(-c3ccccc3)nc2N)c1 | inconclusive [inhibitor, partial curve] | 
20 | CCOC(=O)c1cnn2c(N)c(C#N)nnc12 | inactive | 
21 | Cc1ccc(S(=O)(=O)N2CCN(Cc3ccccc3C(F)(F)F)CC2)cc1 | inconclusive [inhibitor, single point] | 
22 | Cc1ccc(C(=O)N/N=C\c2ccc([N+](=O)[O-])o2)cn1 | inconclusive [inhibitor, partial curve] | 
23 | CN1CC(=O)N(CC(=O)N2CCC(Cc3ccccc3)CC2)C1=O | inconclusive [inhibitor, partial curve] | 
24 | O=C1OC(c2ccccc2)=C/C1=C\N1CCOCC1 | active: 11.2 µM | 

Row | SMILES | Potency | activity, negative = inhibition
25 | CCOC(=O)c1cc2sccc2n1Cc1ccccc1 | inconclusive [inhibitor, single point] | 
26 | S=C(NC1CCCCC1)N1CCN(C/C=C/c2ccccc2)CC1 | inactive | 
27 | CC(C)(CCl)C(=O)Nc1ccc(Sc2ccc(F)cc2)cc1 | inconclusive [inhibitor, single point] | 
28 | O=C1CCCC2=C1C(c1ccccc1)NC(=S)N2 (stereo not given) | inconclusive [inhibitor, single point] | 
29 | O=S(=O)(NCC(c1ccco1)N1CCN(c2ccc(F)cc2)CC1)c1ccc2c(c1)OCCO2 (stereo not given) | inconclusive [inhibitor, single point] | 
30 | COc1ccc(CCN(Cc2ccccn2)C(=S)Nc2ccc(C)cc2)cc1OC | inconclusive [inhibitor, full curve] | 
31 | COc1ccc(OC)c(/C=C/C(=O)N2CCCc3ccccc32)c1 | inconclusive [inhibitor, single point] | 
32 | NC(=O)c1ccc(NC(=O)COC(=O)/C=C/c2cccs2)cc1 | inactive | 
33 | Cc1ccc2c(c1)c1c(n2C)-c2[nH]ncc2CC1 | inconclusive [inhibitor, single point] | 
34 | CC1CCCN(c2ccc(C(=O)NCc3ccc4c(c3)OCO4)cc2[N+](=O)[O-])C1 (stereo not given) | inconclusive [inhibitor, single point] | 
35 | COc1ccc(CC(=O)NCc2ccc3c(c2)cc(C)n3C)cc1 | inconclusive [inhibitor, single point] | 
36 | COc1ccc(-c2cc(=O)oc3cc(OCC(=O)c4cccc([N+](=O)[O-])c4)ccc23)cc1 | inactive | 
37 | O=C(COC(=O)CNC(=O)c1ccccc1F)NCCC1=CCCCC1 | inconclusive [inhibitor, single point] | 
38 | O=C(OCc1ccc2c(c1)OCO2)c1cccc(S(=O)(=O)N2CCCCC2)c1 | active: 7.08 µM | 
39 | CCCCC1=CC2=C(OC(C)=O)C(=O)C(C)(OC(=O)CC)C(=O)C2=CO1 (stereo not given) | inactive | 
40 | CCOC(=O)C1CCCN(c2nc3ccccc3nc2C(C#N)C(=O)OC(C)COC)C1 (stereo not given) | inconclusive [inhibitor, single point] | 
41 | CN(C)c1ccc(C(=O)OCC(=O)NC2CCCCC2)cc1 | inactive | 
42 | Cc1cc(NC(=O)c2cc(-c3ccncc3)nc3c(C)cccc23)no1 | inconclusive [inhibitor, single point] | 
43 | COc1ccccc1-c1nnc(SCC(=O)Nc2ccc(S(N)(=O)=O)cc2)n1C | inconclusive [inhibitor, partial curve] | 
44 | O=C1C2C3C=CC(CNS(=O)(=O)c4ccccc4[N+](=O)[O-])(O3)C2C(=O)N1c1ccccc1 (stereo not given) | active: 0.891 µM | 
45 | CC(=O)Nc1ccc(NC(=O)Cn2cnc3c(nnn3Cc3ccc(F)cc3)c2=O)cc1 | active: 11.2 µM | 
46 | COc1ccc(CC(=O)NC(C)CCc2ccccc2)cc1 (stereo not given) | active: 2.51 µM | 
47 | CCO/C=C1/C(=O)N(c2ccc(OC)cc2)C(=O)c2ccccc21 | inconclusive [inhibitor, partial curve] | 
48 | CCN(CC)CC(=O)NC12CC3CC(CC(C3)C1)C2 | inactive | 

Row | SMILES | Potency | activity, negative = inhibition
49 | S=C(Nc1ccc2c(c1)OCO2)Nc1ccc2c(c1)OCO2 | inconclusive [inhibitor, single point] | 
50 | C(#Cc1ccccc1)C[N+]1(CC#Cc2cccc3ccccc23)CCCC1 | inactive | 
51 | COCCCn1c(C)c(C(C)=O)cc(NC(=O)c2ccccc2)c1=O | active: 2 µM | 
52 | CCN(CC)c1ccc(C(=O)OCC(=O)N2CCN(c3ccccc3)CC2)cc1 | inconclusive [inhibitor, single point] | 
53 | CCOC(=O)c1sc2ncn(C(CC)C(=O)OC)c(=O)c2c1C (stereo not given) | inconclusive [inhibitor, single point] | 
54 | C/C(=N\NC(=O)c1ccc(NS(=O)(=O)c2cccs2)cc1)c1ccc(O)cc1O | inconclusive [inhibitor, single point] | 
55 | O=C(CNC1=NCCC1)c1ccc2c(c1)OCCO2 | inconclusive [inhibitor, single point] | 
56 | O=C(CCc1ccccc1)Nc1ccc(F)c([N+](=O)[O-])c1 | inconclusive [inhibitor, partial curve, poor fit] | 
57 | CC1CCN(CCCNC(=O)c2ccc3c(=O)n(Cc4ccc(Cl)cc4)c(=S)[nH]c3c2)CC1 | active: 15.8 µM | 
58 | COc1ccc2cc(CCNC(=O)c3cccc([N+](=O)[O-])c3)c(=O)[nH]c2c1 | inconclusive [inhibitor, partial curve] | 
59 | CCCN(Cc1ccccc1)C(=S)Nc1ccc(SC(F)F)cc1 | inactive | 
60 | CCc1nnc(NS(=O)(=O)c2ccc(NC(=S)NC(=O)/C=C/c3ccc(F)cc3)cc2)s1 | inconclusive [inhibitor, single point] | 
61 | Cc1ccc(S(=O)(=O)N2CCC(C(=O)NNC(=O)c3ccc(F)cc3)CC2)cc1 | inactive | 
62 | COc1ccc2nc(NC(=O)c3ccc(-n4nc(C)cc4C)cc3)sc2c1 | inconclusive [inhibitor, partial curve] | 
63 | O=C(O)c1c[nH]c2cc(OCc3ccccc3)ccc2c1=O | inconclusive [inhibitor, single point] | 
64 | N#Cc1c(SCc2ccccc2)nc(N2CCOCC2)c2c1CCCC2 | inconclusive [inhibitor, partial curve] | 
65 | CC(C)=CCC/C(C)=C/CO/N=C1/C[C@@H](O)[C@@H](O)[C@@H]2[C@@H]3C(=O)N(Cc4ccccc4)C(=O)[C@H]3CC[C@@H]12 |  | inactive: 5.33% [at 13.5 µM]
66 | CC1Cc2ccccc2N1C(=O)CCNS(=O)(=O)c1ccc2c(c1)CCC(=O)N2 (stereo not given) | active: 15.8 µM | 
67 | Cc1cc(C)c(C#N)c(Nc2ccccc2)n1 | inconclusive [inhibitor, single point] | 
68 | N/C(=N\OC(=O)Cc1cccc2ccccc12)c1ccccn1 | inconclusive [inhibitor, partial curve] | 
69 | COCCNCC(=O)NCC12CC3CC(CC(C3)C1)C2 | active: 28.2 µM | 
70 | N#Cc1ccc(NC(=O)Nc2cccc(C#N)c2)cc1 | inconclusive [inhibitor, single point] | 

— PubChem BioAssay AID1030 (National Center for Advancing Translational Sciences (NCATS), 2008)
